Results on 24 compounds are retold here after the antibiotic and cytotoxicity screens of Wong et al. (2023).

The test system of assay [1] is HSkMC (human skeletal muscle cells). Put plainly: cytotoxicity call (relative viability < 0.9). As to conditions: 10 µM.
Assay [2] concerns HepG2. Put plainly: cytotoxicity call (relative viability < 0.9). Conditions: 10 µM.
In assay [3] the test system is S. aureus RN4220. Nature of the assay: growth inhibition call (relative growth <= 0.2). As to conditions: 50 µM.

Some of the results follow.

On to `CNC[C@@H]1OCCCC[C@@H](C)Oc2ccc(NC(=O)Nc3cccc4ccccc34)cc2C(=O)N([C@H](C)CO)C[C@H]1C`, for which the cytotoxicity call in assay [1] and in assay [2] was “inactive” throughout. In assay [3], the growth inhibition call was “inactive”.
Consider `C=c1ccc(S(=O)(=O)NC[C@@H](C)O)cc1=C1NN=C2c3ccccc3C(C)=NN21`, for which the cytotoxicity call in assay [1] and in assay [2] was “inactive” in each case. The growth inhibition call in assay [3] was “inactive”.
In the case of `COc1ccc([C@H]([C@H](Cc2ccccc2)OC(C)=O)N(CC#C[C@@H](O)c2ccccc2)[C@@H](Cc2ccccc2)C(OC)OC)cc1`, the cytotoxicity call in assay [1] was “inactive”. Further, in assay [2], the cytotoxicity call is “active”. The growth inhibition call in assay [3] is “inactive”.
Regarding `Cc1ccc(S(=O)(=O)Nc2ccc3c(c2)C(=O)N([C@@H](C)CO)C[C@@H](C)[C@@H](CN(C)Cc2ccncc2)OCCCC[C@H](C)O3)cc1`, the cytotoxicity call in assay [1] and in assay [2] was “inactive” throughout. In assay [3], the growth inhibition call is “inactive”.
On to `O=C(Nc1cc(Cl)ccc1Cl)c1cc(Cl)ccc1NS(=O)(=O)c1ccc(Cl)c([N+](=O)[O-])c1`, for which the cytotoxicity call in assay [1] is “inactive”. Moreover, the cytotoxicity call in assay [2] is “active”. Moreover, the growth inhibition call in assay [3] was “active”.
`COc1ccc(NC(=O)N(C)C[C@H]2Oc3ncc(C#CCN(C)C)cc3C(=O)N([C@@H](C)CO)C[C@@H]2C)cc1`: the cytotoxicity call in assay [1] and in assay [2] was “inactive” each time. Also, the growth inhibition call in assay [3] is “inactive”.
For the compound `CNC(=O)C[C@H]1CC[C@H]2[C@@H](COc3ccc(NC(=O)CN(C)C)cc3C(=O)N2C)O1`, the cytotoxicity call in assay [1] and in assay [2] was “inactive” each time. In addition, in assay [3], the growth inhibition call was “inactive”.
With `C=CCC[C@@H](Cc1ccc(F)cc1)C(=O)O[C@@H](CNC(=O)[C@@H](CC=C)CC(=O)N[C@@H](CO)Cc1ccccc1)c1ccccc1`, in assay [1], the cytotoxicity call was “active”. Also, the cytotoxicity call in assay [2] was “inactive”. The growth inhibition call in assay [3] is “inactive”.
For `C[C@@H]1CCCCO[C@H](CN(C)Cc2ccc(C(F)(F)F)cc2)[C@H](C)CN([C@@H](C)CO)C(=O)c2cc(NC(=O)Nc3ccc(F)cc3)ccc2O1`, the cytotoxicity call in assay [1] was “inactive”. Moreover, the cytotoxicity call in assay [2] is “active”. Also, the growth inhibition call in assay [3] was “inactive”.
Regarding `CCCCC(CC)CN1CN(CC(CC)CCCC)CC(C)(N)C1` (configuration not stated), the cytotoxicity call in assay [1] and in assay [2] was “active” in each case. The growth inhibition call in assay [3] is “inactive”.
Regarding `Cc1noc(C)c1NC(=O)Nc1ccc2c(c1)C(=O)N(C)[C@H]1CC[C@H](CC(=O)Nc3ccc4c(c3)CCCC4)O[C@@H]1CO2`, in assay [1], the cytotoxicity call is “active”. Besides, in assay [2], the cytotoxicity call was “inactive”. The growth inhibition call in assay [3] was “inactive”.
For `Cc1ccc(S(=O)(=O)Nc2cccc3c2O[C@@H](CN(C)Cc2ccc(Oc4ccccc4)cc2)[C@H](C)CN([C@@H](C)CO)C3=O)cc1`, the cytotoxicity call in assay [1] and in assay [2] was “inactive” in each case. Further, the growth inhibition call in assay [3] is “inactive”.
Consider `Cc1sc(N)nc1-c1ccccc1`, for which the cytotoxicity call in assay [1] and in assay [2] was “inactive” each time. Besides, the growth inhibition call in assay [3] was “inactive”.
For the compound `C[C@@H]1CCCCO[C@H](CN(C)S(=O)(=O)c2cccs2)[C@@H](C)CN([C@H](C)CO)C(=O)c2cc(NC(=O)CCC(F)(F)F)ccc2O1`, the cytotoxicity call in assay [1] and in assay [2] was “inactive” in each case. Also, the growth inhibition call in assay [3] was “inactive”.
As to `Cc1csc(-c2nnc(Nc3ccc(Oc4ncccc4-c4ccnc(N)n4)cc3)c3ccccc23)c1`, the cytotoxicity call in assay [1] and in assay [2] was “active” in each case. The growth inhibition call in assay [3] is “inactive”.
For the compound `C[C@@H]1CN([C@H](C)CO)C(=O)c2cccc(NS(=O)(=O)c3ccc(F)cc3)c2O[C@H]1CN(C)Cc1ccc(Cl)c(Cl)c1`, the cytotoxicity call in assay [1] and in assay [2] was “inactive” in each case. For the same compound, in assay [3], the growth inhibition call is “inactive”.
For `Cc1cccnc1[C@@H](NC(=O)C1CCN(Cc2ccc(Cl)c(Cl)c2)CC1)c1ccc(Cl)cc1`, the cytotoxicity call in assay [1] was “inactive”. Besides, the cytotoxicity call in assay [2] was “active”. In addition, the growth inhibition call in assay [3] is “inactive”.
As for `C[C@H](CO)N1C[C@H](C)[C@@H](CN(C)C(=O)c2ccc3c(c2)OCO3)Oc2cc(-c3cncnc3)ccc2S1(=O)=O`, the cytotoxicity call in assay [1] and in assay [2] was “inactive” in each case. Further, in assay [3], the growth inhibition call is “inactive”.
For the compound `O=C(C[C@@H]1CC[C@H]2[C@@H](COC[C@@H](O)CN2C(=O)Nc2ccc(Cl)c(Cl)c2)O1)NCc1ccc(Cl)c(Cl)c1`, the cytotoxicity call in assay [1] was “inactive”. For the same compound, in assay [2], the cytotoxicity call is “active”. For the same compound, the growth inhibition call in assay [3] was “inactive”.
Turning to `COc1ccc(CN(C)C[C@H]2OCCCC[C@H](C)Oc3ccc(NC(=O)Nc4ccc(C(F)(F)F)cc4)cc3C(=O)N([C@@H](C)CO)C[C@@H]2C)cc1`, the cytotoxicity call in assay [1] and in assay [2] was “active” in each case. Moreover, the growth inhibition call in assay [3] was “inactive”.
As for `COc1ccc(NC(=O)Nc2ccc3c(c2)C(=O)N([C@@H](C)CO)C[C@@H](C)[C@@H](CN(C)Cc2ccncc2)OCCCC[C@H](C)O3)cc1`, the cytotoxicity call in assay [1] and in assay [2] was “inactive” throughout. Further, the growth inhibition call in assay [3] is “inactive”.
Take `C=CCCCCCCCCC=O`: the cytotoxicity call in assay [1] and in assay [2] was “inactive” each time. Moreover, the growth inhibition call in assay [3] is “inactive”.
As to `CC1C(=O)OC2C1CCC1(C)CCC(=O)C(C)C21` (configuration not stated), the cytotoxicity call in assay [1] and in assay [2] was “inactive” in each case. Further, the growth inhibition call in assay [3] is “inactive”.
`O=C(CCCCCNC(=O)OCc1ccc(CO[C@@H]2C[C@H](c3ccc(C(F)(F)F)cc3)C=C(C(=O)N3CCCCCCC3)O2)cc1)NO`: the cytotoxicity call in assay [1] and in assay [2] was “inactive” throughout. The growth inhibition call in assay [3] was “inactive”.
